Measured values: publication PMC4336329 (PLoS ONE, 2015)
The whole screen tested about 310,000 compounds, of which about 14,000 (4.5%) showed an effect of 50% or more. The effect is printed as a negative number. The list shows a part of the results.

Each molecule was assayed against human ether-à-go-go-related gene (hERG) potassium channel (human, UniProt Q12809) (assay: primary screen, population patch clamp on CHO cells stably expressing hERG).
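Note: peak tail current of the secondary pulse compared with the same well before compound.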

human ether-à-go-go-related gene (hERG) potassium channel, sequence (Q12809 whole entry, looked up): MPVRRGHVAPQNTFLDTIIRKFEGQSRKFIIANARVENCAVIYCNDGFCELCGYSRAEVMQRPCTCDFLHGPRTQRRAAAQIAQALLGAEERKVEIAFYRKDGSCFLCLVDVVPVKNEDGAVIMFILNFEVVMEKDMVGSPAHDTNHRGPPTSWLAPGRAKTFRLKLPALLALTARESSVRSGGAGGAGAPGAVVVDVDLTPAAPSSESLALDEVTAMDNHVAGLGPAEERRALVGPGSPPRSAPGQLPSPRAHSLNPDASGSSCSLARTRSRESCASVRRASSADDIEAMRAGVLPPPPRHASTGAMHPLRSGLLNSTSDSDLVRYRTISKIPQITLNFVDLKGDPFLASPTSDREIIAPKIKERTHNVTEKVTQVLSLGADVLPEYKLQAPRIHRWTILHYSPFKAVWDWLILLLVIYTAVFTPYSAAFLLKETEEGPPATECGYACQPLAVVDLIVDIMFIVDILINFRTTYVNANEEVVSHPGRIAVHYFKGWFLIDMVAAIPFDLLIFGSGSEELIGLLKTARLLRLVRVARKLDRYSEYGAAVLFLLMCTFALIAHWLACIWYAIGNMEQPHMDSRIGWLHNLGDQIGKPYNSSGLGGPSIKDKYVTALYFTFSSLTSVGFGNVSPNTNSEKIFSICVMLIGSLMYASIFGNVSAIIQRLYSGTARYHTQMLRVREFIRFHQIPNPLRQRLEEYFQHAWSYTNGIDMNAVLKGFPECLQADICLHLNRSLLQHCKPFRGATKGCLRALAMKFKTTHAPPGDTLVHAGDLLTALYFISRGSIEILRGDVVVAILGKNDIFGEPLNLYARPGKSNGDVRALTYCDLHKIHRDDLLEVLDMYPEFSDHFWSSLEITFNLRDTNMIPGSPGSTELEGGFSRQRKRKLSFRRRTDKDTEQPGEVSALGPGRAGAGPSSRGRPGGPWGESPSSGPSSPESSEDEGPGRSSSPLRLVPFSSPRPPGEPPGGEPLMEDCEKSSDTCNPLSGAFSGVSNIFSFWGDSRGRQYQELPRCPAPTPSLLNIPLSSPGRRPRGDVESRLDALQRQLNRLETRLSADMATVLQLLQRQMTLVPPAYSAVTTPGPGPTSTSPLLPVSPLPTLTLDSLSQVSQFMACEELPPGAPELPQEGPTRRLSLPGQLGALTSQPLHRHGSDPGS

Structure (SMILES) | hERG current change (%, negative = inhibition) at 10uM
CCCOc1ccc(C(=O)NNC(=S)NC(C)=O)cc1 | 9.17%
O=[N+]([O-])c1ccc(-c2nc(NCC3CCCO3)c3ccccc3n2)cc1 (centres unmarked) | 12.3%
Cc1ccc(CN2CCN(C(=O)C3CCCO3)CC2)cc1 (centres unmarked) | 3.55%
CCC(=O)Nc1nnc(S(=O)(=O)N(CC)c2ccc(Cl)cc2)s1 | 9.75%
COc1ccc(N2CCN(C(=O)c3cc4c(s3)CCCCC4)CC2)cc1 | -40.2%
O=C(Nc1ccc2c(c1)OCCO2)C1CCCN1S(=O)(=O)c1cccc2cccnc12 (centres unmarked) | 9.45%
O=C(NCCCN1CCOCC1)C(=O)NCc1ccccc1Cl | 12.8%
Clc1c(CSc2nc3ccccc3o2)nc2sccn12 | 5.65%
COc1ccc(CCNC(=O)c2ccc(OCC(=O)N3CCOCC3)c(OC)c2)cc1OC | 7.6%
O=C(N/C(=C/c1ccc(Br)cc1)C(=O)N1CCOCC1)c1cccs1 | -5.65%
Cc1ccc(C(=O)N/C(=C/c2ccco2)C(=O)Nc2cccc(C(=O)O)c2)cc1 | 16.3%
COCc1n[nH]c(=S)n1-c1ccccc1 | 15.2%
Cc1ccc(C)c(C2C(=O)c3ccccc3C2=O)c1 | -4.36%
CCc1nn(C(CC)C(=O)NCc2cccs2)c(=O)c2cc3occc3n12 (centres unmarked) | 6.57%
CCN(CC(=O)Nc1cc(Cl)ccc1C)C(=O)c1ccc2c(c1)NC(=O)C(C)S2 (centres unmarked) | -33.7%
O=C(O)CCCN1C(=O)C(=O)/C(=C(/O)c2ccccc2)C1/C=C/c1ccccc1 (centres unmarked) | 4.17%
Cc1ccc(NC2=NCC(=O)N2C2CCCC2)cc1C.Cl | 13.4%
CC1CCN(C(=O)C2CC(c3ccc(F)cc3)=NO2)CC1 (centres unmarked) | -11.5%
Cc1cccc(NC(=O)Cn2cnc(S(=O)(=O)N3CCCC3)c2)c1C | 12.9%
COc1cccc(NC(=O)c2oc3ccccc3c2NC(C)=O)c1 | -0.721%
CC1=C(C(=O)OCC2CCCO2)C(c2ccncc2)C2=C(CC(C)(C)CC2=O)N1 (centres unmarked) | -10.3%
O=C(CSc1nnc(-c2cccnc2)n1C1CCCCC1)NC1CCCCC1 | -17.4%

Structure (SMILES) | hERG current change (%, negative = inhibition) at 10uM
O=C(C1CCC1)N1CCN(c2ccc(Cl)cc2)CC1 | -5.33%
COc1cc(N)ccc1Cc1ccc(N)cc1OC | 22%
CC(=O)Nc1c(C(=O)c2ccccc2)oc2ccccc12 | -10.3%
NC(=O)C[n+]1cccc(CNC(=O)c2ccc(OC(F)F)cc2)c1.[Cl-] | -1.5%
COc1ccc(C(=O)c2ccc(Br)cc2)c2ccccc12 | -6.64%
COc1ccc(C)cc1S(=O)(=O)N1CCN(C(=O)c2ncoc2-c2ccccc2F)CC1 | 16.2%
Cc1c(C)n(C)c2ccc(C(=O)NCCN3CCOCC3)cc12 | 17.5%
O=c1/c(=C/c2ccco2)sc2n1CN(c1cccc(Br)c1)CN=2 | 14.2%
CCc1ccc(N(C(=O)Cn2nnc(-c3ccccc3)n2)C(C(=O)NC2CCCCC2)c2ccccn2)cc1 (centres unmarked) | -46%
CN(Cc1ccc(F)cc1)Cc1nc(CCc2ccccc2)no1 | 0.381%
COc1ccc(Oc2nc(SC)nc3ccsc23)cc1 | 12.3%
CCOC(=O)CCC(=O)Nc1cc(S(=O)(=O)N2CCOCC2)ccc1N1CCCCC1 | -15.5%
Cc1ccc(NC(=O)C2CC(=O)OC23CCOC(C)(C)C3)cc1 (centres unmarked) | 1.08%
C#CCN1CCN(c2cccc(C(F)(F)F)c2)CC1 | 8.78%
O=C(Cn1c(=O)n(CCc2c[nH]c3ccccc23)c(=O)c2cccnc21)Nc1ccccc1F | 2.96%
CCCn1c(=O)c2sccc2n2c(CCCC(=O)NCc3ccco3)nnc12 | -19.2%
COC(=O)CNC(=O)c1cccs1 | 9.38%
O=C(CCC1COc2ccccc2O1)Nc1cccnc1 (centres unmarked) | -6.92%
CC(=O)Nc1cccc(C(=O)Nc2cccc(S(=O)(=O)NCc3ccco3)c2)c1 | -4.68%
CC(=O)Nc1ccc(NC(=O)C(C)OC(=O)CCCN2C(=O)c3cccc4cccc(c34)C2=O)cc1 (centres unmarked) | 3.52%
CCn1c(C)cc(O)c(C(=O)Nc2cccc(Cl)c2)c1=O | 7.26%
CCOC(=O)N1CCC(N2Cc3cccc(C(=O)NCC4CCN(CC(C)C)C4)c3C2=O)CC1 (centres unmarked) | -36.1%

Structure (SMILES) | hERG current change (%, negative = inhibition) at 10uM
COc1ccccc1NC(=O)CSc1nc2ccccc2c(=O)n1C | 12.1%
CC(c1ccccc1)n1c(SCC(=O)N2CC(=O)Nc3ccccc32)nc2ccccc2c1=O (centres unmarked) | 7.92%
O=C1Nc2ccccc2O/C1=C\c1ccccc1 | 17.2%
Cc1nc2ccc3nc(NC(=O)c4ccc5c(c4)OCCO5)sc3c2s1 | 2.9%
COc1ccccc1N(Cc1cc2ccc(C)cc2[nH]c1=O)C(C)=O | -11.6%
Cc1cn(CC2COC(C)(C)O2)c(=O)[nH]c1=O (centres unmarked) | 22.6%
Cc1ccccc1S(=O)(=O)N1[C@@H](c2ccccc2)C(C(=O)O)=CC[C@H]1c1ccc(Cl)cc1 | 14.4%
CC(C)(C)c1ccc(C(=O)NCC(=O)OCC(=O)N2CCN(S(=O)(=O)c3ccc(Cl)cc3)CC2)cc1 | -4.82%
Cc1ccc(C)c(OCC(=O)N2CCc3ccccc3C2)c1 | 0.256%
Cc1cccc(NS(=O)(=O)c2ccccc2)n1 | -8.65%
COc1cccc(N2C(=O)C(Cc3c[nH]c4ccccc34)NC2=S)c1 (centres unmarked) | 17.3%
CN(C)C(CNC(=O)c1ccc(C2SCCS2)cc1)c1ccccc1 (centres unmarked) | 7.3%
COC(=O)c1cc(OC)c(OC)cc1NC(=O)C1CCC(=O)N1S(=O)(=O)c1ccc(C)cc1 (centres unmarked) | -12.3%
Cc1ccc(C(=O)N(C)CC(=O)Nc2cccc(F)c2)cc1S(=O)(=O)N1CCCCC1 | -10.5%
COc1ccc(C(=O)Nn2c(SCc3cccc([N+](=O)[O-])c3)nc3ccccc3c2=O)cc1 | 5.72%
CC(=O)Nc1ccc(NC(=O)C(=O)NCC(c2ccco2)N2CCc3ccccc32)cc1 (centres unmarked) | -8.84%
CC(=O)OCC(=O)C1(O)CCC2C3CCC4=CC(=O)C=CC4(C)C3C(O)CC21C (centres unmarked) | 9.27%
O=c1[nH]c(O)c(C=Nc2ccccc2[N+](=O)[O-])c(=O)[nH]1 | 36.7%
CC(=O)NCCC1CCN(C(=O)C2CCC(=O)N(C3CCCC3)C2)CC1 (centres unmarked) | 11.2%
COc1ccc(-c2nnn(CC(=O)N(CCN3CCOCC3)C(C(=O)NC3CCCC3)c3ccco3)n2)cc1 (centres unmarked) | -15.7%
CCOc1ccc(OC(=O)c2ccc3c(=O)n4c(nc3c2)CCC4)cc1 | -0.0701%
CCC(C)N(CCNC(=O)c1ccc(NC2=NC3CS(=O)(=O)CC3S2)cc1)Cc1ccco1 (centres unmarked) | -19.9%

Structure (SMILES) | hERG current change (%, negative = inhibition) at 10uM
Cc1cc(Cl)c(OCCOCCN2CCN(C)CC2)c(Br)c1.O=C(O)C(=O)O | -9.48%
S=c1[nH]c2ncccc2o1 | -31.9%
COCCN1CCn2c(nc3cc(NS(C)(=O)=O)ccc32)C1 | -9.18%
Cc1c(/C=N/n2cnnc2)c2ccccc2n1CCOc1ccc(Cl)cc1 | -7.38%
CCC(=O)c1ccc(OCC(O)CNC(C)c2ccccc2)cc1 (centres unmarked) | -14.7%
CCOc1cc(N2CCOCC2)c(OCC)cc1NC(=O)CN1C(=O)NC2(CCCCC2)C1=O | -69.7%
CC(=O)O[C@@H]1[C@@H](OC(C)=O)[C@H](n2ccc3cc([N+](=O)[O-])ccc32)OC[C@@H]1OC(C)=O | -2.52%
Nc1c(-c2ccccc2)c(CSc2nc3ccccc3[nH]2)nn1-c1cccc(Cl)c1 | -3.15%
COc1ccc(OCCNC(=O)/C=C/c2ccc([N+](=O)[O-])cc2)cc1 | -64.7%
CC(NC(=O)c1cc(S(=O)(=O)N2CCOCC2)ccc1N1CCCC1)c1ccc(Cl)c(Cl)c1 (centres unmarked) | -23.9%
O=C(Nc1ccnn1C1CCN(Cc2cccc(OCCO)c2)CC1)C1CCOC1 (centres unmarked) | -2.98%
CCc1noc(C)c1C(=O)N1CCN(S(=O)(=O)c2ccc(Br)cc2Cl)CC1 | -40.7%
COc1ccc(CCNC(=O)Cn2cccc2C(=O)c2ccccc2)cc1OC | 18.4%
COC(=O)[C@]1(C)CCC[C@@]2(C)C3CC[C@@]4(C)C[C@]3(CCC21)CC4=NO (some centres unmarked) | -11.2%
Cc1ccc(C(=O)Nc2nnc(-c3ccncc3)o2)cc1 | -7.01%
Cc1ccc(S(=O)(=O)N2CCCCC2)cc1NC(=O)Nc1ccc(Cl)cc1Cl | 19%
COc1cc(Cl)ccc1NC(=S)N(CCCN1CCOCC1)Cc1cn(C)c2ccccc12 | -5.83%
O=C(NCCN1CCOCC1)c1ccc(-c2ccccc2)cc1 | -8.77%
COCCN(CCOC)C(=O)c1ccc(CSc2nc3ccccc3s2)cc1 | -21.8%
C[C@@H](C(O)c1ccccc1)N(C)C(=O)CCc1ccccc1 (some centres unmarked) | -6.9%
